For six molecules, binding signal results are on record in paper PMC12136788.

Some of the results follow.

B1: chr2:210678210:210678332:+|3pUTR|ENSG00000021826|unk|FALSE|unique (ssRNA)
RNA: GGGAGUUCUACAGUCCGACGAUCUUCAUCCAUUUACUAAUACUGUAUUUUUGGUGGACUAGGCUUGCCUAUGUGCUUAUGUGUAGCUUUUUACUUUUUAUGGUGCUGAUUAAUGGUGAUCAAGGUAGGAAAAGUUGCUGUUCUCAACAGAGGAUUGAGCAUCA
B2: chr9:72354534:72354635:-|3pUTR|ENSG00000107372|msi1|total|mutant (ssRNA)
RNA: GGGAGUUCUACAGUCCGACGAUCGUCCCCGUUUUUACUUUUAUUCUUAAAGCAUUCAGUUUUGCUUUCAAUUUUAUGUACCUCCGUUCUGAGUCCGACCUGCAGAUGUGUACAGACCGUUCAUAUUUAUGUAUUGCACAUAAUCAACAGAGGAUUGAGCAUCA
B3: chr15:63071210:63071313:+|3pUTR|ENSG00000140416|unk|FALSE|unique (ssRNA)
RNA: GGGAGUUCUACAGUCCGACGAUCCCUUAAAUGCAAUUUAUUUACUUUUACCACUGUCACAGAAACAUCCACAAGAUACCAGCUAGGUCAGGGGGUGGGGAAAACACAUACAAAAAGGCAAGCCCAUGUCAGGGCGAUCCUGGUCAACAGAGGAUUGAGCAUCA
B4: chr15:52550718:52550819:-|3pUTR|ENSG00000128989|msi1|FALSE|unique (ssRNA)
RNA: GGGAGUUCUACAGUCCGACGAUCUUUAUAUAAACUUUUUAAAUGUAGAAACUUUUUACUUCCACACUCAGUUUUGGAGACCCUAGAAUAAAAGGCUUCAAUACUCUGCAUUCCAUGCCCUCUGCCACCUGCUUUUUUUUCCCCCAACAGAGGAUUGAGCAUCA
B5: chr2:74214837:74214938:+|3pUTR|ENSG00000065911|msi1_unk|FALSE|overlapping (ssRNA)
RNA: GGGAGUUCUACAGUCCGACGAUCCUGUCCUUUUGAGGCUUAGUCAGUUUAUUGGGAAAAUGUUUAGGAUUAUUCCUUGCUAUUAGUACUCAUUUUAUGUAUGUUACCCUUCAGUAAGUUCUCCCCAUUUUAGUUUUCUAGGACCAACAGAGGAUUGAGCAUCA
B6: ENSG00000118705:stop:overlap|stop_codon|ENSG00000118705|stop_codon|NA|stop_codon (ssRNA)
RNA: GGGAGUUCUACAGUCCGACGAUCUGACGUUUCUGGCUGGCAAUCGGAUGCUGGCCCAGCAGGCAGUCAAGAGAACAGCACAUUAGUUCCAGAAGAAAGAUGGAAAUUCUGAAAACUGAAUGUCAAGAAAAGGAGUCAAGAACACAACAGAGGAUUGAGCAUCA

For the experiment, the target named is MSI1 full-length (mouse, UniProt Q61474 1-362). The experiment can be described thus: nsRBNS (natural sequence RNA bind-n-seq); RBNS binding buffer (assumed for nsRBNS): 25 mM Tris pH 7.5, 150 mM KCl, 3 mM MgCl2, 0.01% Triton X-100, 500 ug/ml BSA, 20 U/ml SUPERase-In, 4 C; UNK is unkempt and MSI1 is Musashi-1; names of the RNAs are library labels; protein concentration not given here; high values mean tight binding.
UniProt Q61474, sequence (Q61474 whole entry): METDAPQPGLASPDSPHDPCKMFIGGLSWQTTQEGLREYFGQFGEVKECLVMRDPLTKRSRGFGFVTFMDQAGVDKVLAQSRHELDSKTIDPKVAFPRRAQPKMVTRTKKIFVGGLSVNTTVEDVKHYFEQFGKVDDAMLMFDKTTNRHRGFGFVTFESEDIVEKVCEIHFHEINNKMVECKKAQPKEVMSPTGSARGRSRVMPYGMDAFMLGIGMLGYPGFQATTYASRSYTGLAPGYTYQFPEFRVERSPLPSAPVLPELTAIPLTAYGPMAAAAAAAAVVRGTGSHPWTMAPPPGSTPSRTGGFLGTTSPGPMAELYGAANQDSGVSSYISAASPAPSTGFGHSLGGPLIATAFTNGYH
B1 registered a binding signal of 0.85 enrichment R.

For the molecule B2, the binding signal worked out at 1.52 enrichment R.

B3 returned a binding signal of 1.66 enrichment R.

In turn, B4 yielded a binding signal of 3.53 enrichment R.

B5 showed a binding signal of 8.19 enrichment R.

In the case of B6, the binding signal amounted to 0.559 enrichment R.
